Reference: ChEMBL document CHEMBL4888484, “Replenishing the malaria drug discovery pipeline: Screening and hit evaluation of the MMV Hit Generation Library 1 (HGL1) against asexual blood stage Plasmodium falciparum ,using a nano luciferase reporter read-out” (2022)
Among all 150,000 compounds or so, about 540 (0.36%) showed an effect of 50% or more. This is one part of the list.

test system: Plasmodium falciparum; test: Primary screen in NF54 nanoGlo assay, in single point, at 2uM, 72h; a lower Z score goes with more inhibition; assay type: functional, Erythrocyte; conditions: timepoint 72 hour

Row | Structure (SMILES) | % Inhibition [%] | Z score
1 | COCCC1CCN(C(=O)N[C@@H](C)c2cccc(OC)c2)CC1 | -8 | 1.12
2 | COCCS(=O)(=O)NC(=O)c1cnc(-c2cccs2)s1 | 27 | -3.52
3 | c1ccc(-c2cnn3cccnc23)c(CN2CCOCC2)c1 | -5 | 0.63
4 | Cc1cccc(CC2(NC(=O)c3ccc(CO)cc3)CC2)c1 | -20 | 2.89
5 | COc1cc2c(cc1OC)CN(C(=O)COc1c[nH]c(C)cc1=O)CC2 | -13 | 1.65
6 | CN(C)CCCN(CC1CCN(C2Cc3ccccc3C2)CC1)C(=O)C(=O)c1ccccc1 | 0 | 0.04
7 | C=C[C@H]1OCCC[C@@H]1NC(=O)c1nn(C)c(C)c1Cl | 0 | -0.05
8 | CC(C)C[C@@H]1NC(=O)[C@@H](Cc2ccccc2)NC(=O)c2cccc(c2)Oc2ccc(cc2)C[C@@H](C(=O)N(C)CCO)NC1=O | 10 | -1.98
9 | CCOC(=O)c1sc(=S)n(C)c1NC(=O)c1ccccc1Cl | 11 | -2.16
10 | CCCN(CC(=O)Nc1nc(C)no1)[C@@H](C)c1ccccc1Br | 15 | -1.91
11 | CNC(=O)C1(N2CCC[C@H]2C(=O)NC2CC2)COC1 | 1 | -0.12
12 | O=C(Nc1ccnn1C1CCN(Cc2cc3ccccc3o2)CC1)c1ccc2c(c1)OCO2 | -2 | 0.34
13 | CC(C)n1cc2cc(C(=O)N3CCN(Cc4ccc5c(c4)OCO5)CC3)sc2c1 | 3 | -0.61
14 | CC(=O)NC(C)(C)C(=O)Nc1cccc(C(F)(F)F)c1 | 19 | -2.19
15 | c1ccc(-c2cc(-c3ccc4ccccc4n3)c3c(ccc4ccccc43)n2)nc1 | 15 | -1.96
16 | CCN1CCc2cc(OC)c(OC)cc2C1C(C)NC(=O)c1cccc(Cl)c1 (stereo not drawn) | 3 | -0.49
17 | CCCNc1ncnc2[nH]c(=O)c(NC(=O)c3ccc(OC)c(OC)c3)cc12 | 18 | -2.39
18 | COCC1(CNC(=O)c2cc(Cl)cn2C)CC1 | 1 | -0.21
19 | CC(=O)N1CC[C@H](Nc2cccc(F)c2C#N)c2ccc(F)cc2C1 | -13 | 1.99
20 | CN(CCN1CCCC1)c1cccc(C#N)n1 | -4 | 0.45
21 | Cc1cccc(NC(=O)N2CCN(c3nc(C)cc(N4CCN(C)CC4)n3)CC2)c1 | -6 | 1.17

Row | Structure (SMILES) | % Inhibition [%] | Z score
22 | CCC(=O)Nc1nc(C)c(C(C)(C)C)s1 | -20 | 2.33
23 | CN(C(=O)N[C@H]1CCS(=O)(=O)C1)C1CCCCCC1 | -4 | 0.4
24 | Cc1sc(-c2nnc(C3CC3)o2)cc1NS(C)(=O)=O | -11 | 1.07
25 | COCCCN(Cc1cc2cc3c(cc2nc1-c1ccccc1C)OCO3)C(=O)c1cncs1 | 14 | -1.79
26 | CC1CCN(S(=O)(=O)N2CCC(=O)C[C@@H]2C)CC1 | -9 | 1.13
27 | CC[C@H](NC(=O)N1CCC2(CCOCC2)C1)c1cccc(Cl)c1 | -16 | 2.49
28 | COc1cccc(-c2nsc(C(=O)NCc3cccs3)c2N)c1 | 18 | -2.8
29 | CCC(C)(C)C(=O)Nc1cc(C)ccc1C | -10 | 1.29
30 | Cc1nn(-c2cccc3cccnc23)c(=O)c2ccccc12 | -16 | 2.01
31 | CN(CC(=O)NCc1ccccn1)c1nnc(N2CCCCC2=O)s1 | -13 | 2.35
32 | CC(C)Cn1c(-c2cn[nH]c2)nnc1N1CC[C@H](N2CCN(C(C)C)CC2)C1 | -1 | 0.13
33 | Nc1[nH]nc(C2CC2)c1-c1ccc2c(c1)OCO2 | 12 | -1.55
34 | Cc1ccnc(N2CC(CF)C2)c1C#N | -15 | 1.82
35 | CN(Cc1ccncn1)C(=O)c1csc2nc(-c3ccccc3)cn12 | -6 | 0.86
36 | O=C(NC[C@H]1CCCN(Cc2ccoc2)C1)c1cncnc1 | -10 | 1.01
37 | O=C(Cn1nnc2ccccc21)NC(C1CC1)C1CC1 | 0 | 0.07
38 | C[C@@H](c1ccccc1)N1CCN(C(=O)Cn2cnc(C#N)n2)CC1 | -13 | 1.13
39 | O=C(O)c1cc2ccccc2c([C@H]2Nc3ccccc3C(=O)N2O)c1O | -27 | 3.11
40 | CCN1C(=O)C2(CCN(C(=O)Cc3ccccc3C)CC2)C[C@H]1C(=O)NC1CCCC1 | -16 | 2
41 | CCCc1ncncc1C(=O)N(C)C[C@H](O)CO | 1 | -0.2
42 | C[C@@H](Cc1cn(Cc2n[nH]c3c2CCC3)nn1)c1ccccc1 | -12 | 2.18

Row | Structure (SMILES) | % Inhibition [%] | Z score
43 | CCOc1ncccc1CN1C[C@@H](C(=O)O)CC1=O | 3 | -0.4
44 | N#Cc1cccc(N2CCC[C@@]3(CCC(=O)N(CCc4c[nH]cn4)C3)C2)n1 | 2 | -0.39
45 | COc1ccccc1-c1nc(S(=O)(=O)c2ccc3c(c2)OCCO3)c(N2CCOCC2)o1 | -10 | 1.29
46 | O=C(N[C@@H](CO)C(=O)N1Cc2ccccc2C1)c1ccccc1 | 1 | -0.16
47 | CC(=O)Nc1ccc(S(=O)(=O)NC2=NCN(C)CN2)cc1 | -6 | 0.91
48 | CC(O)CC1COCCN1C(=O)NC1CC=CC1 (stereo not drawn) | -10 | 1.45
49 | O=c1[nH]cncc1-c1nc(-c2ccc(Cl)cc2)no1 | 30 | -3.41
50 | CCc1nnc2n1CCN(C(=O)c1c(C)oc(C)c1C)C2 | 2 | -0.37
51 | O=C(OCCNc1nc(-c2ccccc2)nc2ccccc12)c1cccnc1 | -5 | 0.59
52 | Cc1cc(NC(=O)Cn2ncc3cc(-c4ccccc4N(C)C)ccc32)n(C)n1 | 9 | -1.73
53 | Cc1cccc(Cl)c1OCCOCCNC(C)(C)C | 0 | 0.01
54 | [O-][N+]1=CC(c2ccc3c(c2)OCO3)=[N+]([O-])C2CCCCC21 (stereo not drawn) | -11 | 1.5
55 | O=C(NCc1ccccn1)[C@@H]1CN(C(=O)Nc2ccc3c(c2)OCO3)CCO1 | -2 | 0.23
56 | Cc1nn(C)c(N2CCN(c3ncc(Cl)cn3)CC2)c1N | -8 | 1.01
57 | CN(CCc1nccs1)C(=O)[C@@H]1CCCN1CC(F)(F)F | -2 | 0.34
58 | Cc1ccc(-c2c3c(=O)n(C)c(=O)n(C)c3c3n2-c2cc(C)ccc2O[C@@H]3c2ccccc2Cl)cc1 | -6 | 0.87
59 | CN(C(=O)c1scnc1C1CC1)C1CCN(S(C)(=O)=O)CC1 | 2 | -0.34
60 | CC(C)=CCN1C(=O)[C@@H]2CC[C@H]1CN(C(=O)CCc1csc(N)n1)C2 | -5 | 0.67
61 | O[C@H]1Cc2ccccc2[C@H]1NCc1ncc[nH]1 | -25 | 3.37
62 | CC(=O)[C@H]1CCN(C(=O)c2ccoc2)C1 | -13 | 2.4
63 | CCC(=O)N(C)CC(=O)Nc1ccc(Cl)cc1 | 7 | -0.66

Row | Structure (SMILES) | % Inhibition [%] | Z score
64 | COC(=O)c1cc(CNCc2ccccc2OC)on1 | -9 | 0.74
65 | Cc1oc(-c2ccccc2)nc1Cn1nnc(-c2nc(-c3cccc(Br)c3)no2)c1C | -7 | 0.96
66 | Cc1cc(Br)ccc1N1CC[C@@H](C(=O)NC2CC2)C1=O | 31 | -0.35
67 | O=C(c1cnc(NC[C@@H](CO)c2cccnc2)c(Cl)c1)N1CCOCC1 | -14 | 2.3
68 | COCCCn1cnc2c(-c3ccccc3)cn(CC(=O)Nc3ccccc3C)c2c1=O | -1 | 0.16
69 | CCc1nc(C)sc1C(=O)N[C@@H]1COCC[C@@H]1OCc1ccccc1 | -9 | 1.25
70 | CCCNC(=O)CN(CCC)C(=O)[C@@H](c1cnn(C)c1)N(C)C(=O)OC(C)(C)C | -6 | 0.54
71 | Cc1ncn(CCNC(=O)[C@@H]2CCCCCN2C)c1C | -8 | 1
72 | c1ccc(Cc2cn[nH]c2C2CCN(C3Cc4ccccc4C3)CC2)cc1 | 10 | -2.1
73 | COc1ccccc1CNS(=O)(=O)c1c(C)c(C)cc2c(C)c(C(=O)N3CCCC3)oc12 | -8 | 1
74 | COCCN1C[C@@H](Cn2cnc(-c3ccccc3)c2C)CC1=O | -1 | 0.27
75 | Cc1ccsc1C(=O)N1CC[C@@]2(CCCN(Cc3cccnc3)C2=O)C1 | -5 | 0.87
76 | Cc1ccc(-c2nnc(N3CCN(Cc4ccccc4)CC3)n2CCOc2ccccc2)s1 | -9 | 1.5
77 | O=C(NC[C@H]1C[C@@H]1c1ccc(Cl)cc1Cl)c1cccnn1 | 7 | -1.31
78 | Cn1cnnc1[C@@H]1CCCN1CC(=O)Nc1ccc(S(=O)(=O)C(F)F)cc1 | -7 | 0.86
79 | c1ccc2[nH]c(C3CCN(Cc4cc(CN5CCCC5)cs4)CC3)nc2c1 | -10 | 2.16
80 | CCOc1ccc(NC(=O)Cn2c(=O)c3nncn3c3ccccc32)cc1 | -9 | 0.97
81 | Cc1ccc(NC(=O)Cn2nc(-c3ccco3)c3sc(N4CCCCC4)nc3c2=O)cc1Cl | -1 | 0.23
82 | OCCn1cc(N[C@H]2CCOC23CCCC3)cn1 | -1 | 0.16
83 | CN(C)[C@H]1CN(Cc2ncccn2)C[C@@H]1C1CC1 | 11 | -0.97
84 | CCC[C@H]1CN(c2nc(N(C)C)ns2)C[C@@H]1C(=O)O | -10 | 1.33
